Source: patent US20220023439A1, “ACTIVATABLE ANTI-CD166 ANTIBODIES AND METHODS OF USE THEREOF” (priority 2018, published 2022)

Experiment: Phase 1/2 study in human subjects: adverse events, DLT and MTD (NCI CTCAE v4.03)
Type: in vivo
Settings: for Subjects with Infusion Reactions Grade 1-2 / Subjects with Infusion Reactions Grade 3-4 / Subjects with Ocular Toxicities Grade 1-2 / Subjects with Ocular Toxicities Grade 3-4 / Subjects with Treatment-Related Adverse Events Grade 1-2 / Subjects with Treatment-Related Adverse Events Grade 3-4: Table 10

B1: Combination 55 (conjugate)
heavy: QITLKESGPTLVKPTQTLTLTCTFSGFSLSTYGMGVGWIRQPPGKALEWLANIWWSEDKHYSPSLKSRLTITKDTSKNQVVLTITNVDPVDTATYYCVQIDYGNDYAFTYWGQGTLVTVSS[skipping human IgG1 constant region]
light: QGQSGQGLCHPAVLSAWESCSSGGGSSGGSAVGLLAPPGGLSGRSDNHGGSDIVMTQSPLSLPVTPGEPASISCRSSKSLLHSNGITYLYWYLQKPGQSPQLLIYQMSNLASGVPDRFSGSGSGTDFTLKISRVEAEDVGVYYCAQNLELPYTFGQGTKLEIKRTVAAPSVFIFPPSDEQLKSGTASVVCLLNNFYPREAKVQWKVDNALQSGNSQESVTEQDSKDSTYSLSSTLTLSKADYEKHKVYACEVTHQGLSSPVTKSFNRGEC
modifications: DM4 via SPDB linker
Subjects with Infusion Reactions Grade 1-2 (0.25 mg/kg, n=1): 0 | Subjects with Infusion Reactions Grade 3-4 (0.25 mg/kg, n=1): 0 | Subjects with Ocular Toxicities Grade 1-2 (0.25 mg/kg, n=1): 0 | Subjects with Ocular Toxicities Grade 3-4 (0.25 mg/kg, n=1): 0 | Subjects with Treatment-Related Adverse Events Grade 1-2 (0.25 mg/kg, n=1): 0 | Subjects with Treatment-Related Adverse Events Grade 3-4 (0.25 mg/kg, n=1): 0 | Subjects with Infusion Reactions Grade 1-2 (0.5 mg/kg, n=3): 0 | Subjects with Infusion Reactions Grade 3-4 (0.5 mg/kg, n=3): 0 | Subjects with Ocular Toxicities Grade 1-2 (0.5 mg/kg, n=3): 0 | Subjects with Ocular Toxicities Grade 3-4 (0.5 mg/kg, n=3): 0 | Subjects with Treatment-Related Adverse Events Grade 1-2 (0.5 mg/kg, n=3): 1 | Subjects with Treatment-Related Adverse Events Grade 3-4 (0.5 mg/kg, n=3): 0 | Subjects with Infusion Reactions Grade 1-2 (1 mg/kg, n=3): 1 | Subjects with Infusion Reactions Grade 3-4 (1 mg/kg, n=3): 0 | Subjects with Ocular Toxicities Grade 1-2 (1 mg/kg, n=3): 0 | Subjects with Ocular Toxicities Grade 3-4 (1 mg/kg, n=3): 0 | Subjects with Treatment-Related Adverse Events Grade 1-2 (1 mg/kg, n=3): 2 | Subjects with Treatment-Related Adverse Events Grade 3-4 (1 mg/kg, n=3): 0 | Subjects with Infusion Reactions Grade 1-2 (2 mg/kg, n=3): 1 | Subjects with Infusion Reactions Grade 3-4 (2 mg/kg, n=3): 0 | Subjects with Ocular Toxicities Grade 1-2 (2 mg/kg, n=3): 0 | Subjects with Ocular Toxicities Grade 3-4 (2 mg/kg, n=3): 0 | Subjects with Treatment-Related Adverse Events Grade 1-2 (2 mg/kg, n=3): 3 | Subjects with Treatment-Related Adverse Events Grade 3-4 (2 mg/kg, n=3): 0 | Subjects with Infusion Reactions Grade 1-2 (4 mg/kg, n=10): 1 | Subjects with Infusion Reactions Grade 3-4 (4 mg/kg, n=10): 0 | Subjects with Ocular Toxicities Grade 1-2 (4 mg/kg, n=10): 2 | Subjects with Ocular Toxicities Grade 3-4 (4 mg/kg, n=10): 0 | Subjects with Treatment-Related Adverse Events Grade 1-2 (4 mg/kg, n=10): 7 | Subjects with Treatment-Related Adverse Events Grade 3-4 (4 mg/kg, n=10): 1 | Subjects with Infusion Reactions Grade 1-2 (5 mg/kg, n=9): 2 | Subjects with Infusion Reactions Grade 3-4 (5 mg/kg, n=9): 0 | Subjects with Ocular Toxicities Grade 1-2 (5 mg/kg, n=9): 5 | Subjects with Ocular Toxicities Grade 3-4 (5 mg/kg, n=9): 1 | Subjects with Treatment-Related Adverse Events Grade 1-2 (5 mg/kg, n=9): 6 | Subjects with Treatment-Related Adverse Events Grade 3-4 (5 mg/kg, n=9): 3 | Subjects with Infusion Reactions Grade 1-2 (6 mg/kg, n=9): 3 | Subjects with Infusion Reactions Grade 3-4 (6 mg/kg, n=9): 0 | Subjects with Ocular Toxicities Grade 1-2 (6 mg/kg, n=9): 2 | Subjects with Ocular Toxicities Grade 3-4 (6 mg/kg, n=9): 0 | Subjects with Treatment-Related Adverse Events Grade 1-2 (6 mg/kg, n=9): 7 | Subjects with Treatment-Related Adverse Events Grade 3-4 (6 mg/kg, n=9): 2 | Subjects with Infusion Reactions Grade 1-2 (7 mg/kg, n=9): 3 | Subjects with Infusion Reactions Grade 3-4 (7 mg/kg, n=9): 0 | Subjects with Ocular Toxicities Grade 1-2 (7 mg/kg, n=9): 3 | Subjects with Ocular Toxicities Grade 3-4 (7 mg/kg, n=9): 0 | Subjects with Treatment-Related Adverse Events Grade 1-2 (7 mg/kg, n=9): 6 | Subjects with Treatment-Related Adverse Events Grade 3-4 (7 mg/kg, n=9): 2 | Subjects with Infusion Reactions Grade 1-2 (8 mg/kg, n=12): 2 | Subjects with Infusion Reactions Grade 3-4 (8 mg/kg, n=12): 1 | Subjects with Ocular Toxicities Grade 1-2 (8 mg/kg, n=12): 6 | Subjects with Ocular Toxicities Grade 3-4 (8 mg/kg, n=12): 2 | Subjects with Treatment-Related Adverse Events Grade 1-2 (8 mg/kg, n=12): 6 | Subjects with Treatment-Related Adverse Events Grade 3-4 (8 mg/kg, n=12): 5 | Subjects with Infusion Reactions Grade 1-2 (9 mg/kg, n=7): 0 | Subjects with Infusion Reactions Grade 3-4 (9 mg/kg, n=7): 0 | Subjects with Ocular Toxicities Grade 1-2 (9 mg/kg, n=7): 1 | Subjects with Ocular Toxicities Grade 3-4 (9 mg/kg, n=7): 2 | Subjects with Treatment-Related Adverse Events Grade 1-2 (9 mg/kg, n=7): 3 | Subjects with Treatment-Related Adverse Events Grade 3-4 (9 mg/kg, n=7): 2 | Subjects with Infusion Reactions Grade 1-2 (10 mg/kg, n=5): 0 | Subjects with Infusion Reactions Grade 3-4 (10 mg/kg, n=5): 0 | Subjects with Ocular Toxicities Grade 1-2 (10 mg/kg, n=5): 1 | Subjects with Ocular Toxicities Grade 3-4 (10 mg/kg, n=5): 1 | Subjects with Treatment-Related Adverse Events Grade 1-2 (10 mg/kg, n=5): 1 | Subjects with Treatment-Related Adverse Events Grade 3-4 (10 mg/kg, n=5): 2 | Grade 3-4 TRAEs, Eye Disorders (% of subjects observed) (10 mg/kg, n=8, Table 11A): (12.5%) | Grade 3-4 TRAEs, Eye Disorders (no. of subjects) (10 mg/kg, n=8, Table 11A): 1 | Grade 3-4 TRAEs, Gastrointestinal Disorders (% of subjects observed) (10 mg/kg, n=8, Table 11A): (12.5%) | Grade 3-4 TRAEs, Gastrointestinal Disorders (no. of subjects) (10 mg/kg, n=8, Table 11A): 1 | Grade 3-4 TRAEs, Liver Function Tests (% of subjects observed) (10 mg/kg, n=8, Table 11A): (37.5%) | Grade 3-4 TRAEs, Liver Function Tests (no. of subjects) (10 mg/kg, n=8, Table 11A): 3 | Grade 3-4 TRAEs, Metabolism & Nutrition Disorders (no. of subjects) (10 mg/kg, n=8, Table 11A): 0 | Grade 3-4 TRAEs, Nervous System Disorders (no. of subjects) (10 mg/kg, n=8, Table 11A): 0 | Total Grade 3-4 TRAEs (% of subjects observed) (10 mg/kg, n=8, Table 11A): (50%) | Total Grade 3-4 TRAEs (no. of subjects) (10 mg/kg, n=8, Table 11A): 4 | Grade 3-4 TRAE Anemia (no. of subjects) (10 mg/kg, n=8, Table 11B): 0 | Grade 3-4 TRAE Fatigue (% of subjects observed) (10 mg/kg, n=8, Table 11B): (13%) | Grade 3-4 TRAE Fatigue (no. of subjects) (10 mg/kg, n=8, Table 11B): 1 | Grade 3-4 TRAE HN, hyponatremia (no. of subjects) (10 mg/kg, n=8, Table 11B): 0 | Grade 3-4 TRAE Increased ALT (% of subjects observed) (10 mg/kg, n=8, Table 11B): (25%) | Grade 3-4 TRAE Increased ALT (no. of subjects) (10 mg/kg, n=8, Table 11B): 2 | Grade 3-4 TRAE Increased AST (% of subjects observed) (10 mg/kg, n=8, Table 11B): (38%) | Grade 3-4 TRAE Increased AST (no. of subjects) (10 mg/kg, n=8, Table 11B): 3 | Grade 3-4 TRAE Keratitis (% of subjects observed) (10 mg/kg, n=8, Table 11B): (13%) | Grade 3-4 TRAE Keratitis (no. of subjects) (10 mg/kg, n=8, Table 11B): 1 | Grade 3-4 TRAE Nausea (% of subjects observed) (10 mg/kg, n=8, Table 11B): (13%) | Grade 3-4 TRAE Nausea (no. of subjects) (10 mg/kg, n=8, Table 11B): 1 | Grade 3-4 TRAE PSN, Peripheral sensory neuropathy (no. of subjects) (10 mg/kg, n=8, Table 11B): 0 | Grade 3-4 TRAE Vomiting (no. of subjects) (10 mg/kg, n=8, Table 11B): 0 | Grade 3-4 TRAEs, Eye Disorders (% of subjects observed) (4-5 mg/kg, n=19, Table 11A): (5.3%) | Grade 3-4 TRAEs, Eye Disorders (no. of subjects) (4-5 mg/kg, n=19, Table 11A): 1 | Grade 3-4 TRAEs, Gastrointestinal Disorders (no. of subjects) (4-5 mg/kg, n=19, Table 11A): 0 | Grade 3-4 TRAEs, Liver Function Tests (no. of subjects) (4-5 mg/kg, n=19, Table 11A): 0 | Grade 3-4 TRAEs, Metabolism & Nutrition Disorders (no. of subjects) (4-5 mg/kg, n=19, Table 11A): 0 | Grade 3-4 TRAEs, Nervous System Disorders (% of subjects observed) (4-5 mg/kg, n=19, Table 11A): (5.3%) | Grade 3-4 TRAEs, Nervous System Disorders (no. of subjects) (4-5 mg/kg, n=19, Table 11A): 1 | Total Grade 3-4 TRAEs (% of subjects observed) (4-5 mg/kg, n=19, Table 11A): (21.1%) | Total Grade 3-4 TRAEs (no. of subjects) (4-5 mg/kg, n=19, Table 11A): 4 | Grade 3-4 TRAE Anemia (% of subjects observed) (4-5 mg/kg, n=19, Table 11B): (5%) | Grade 3-4 TRAE Anemia (no. of subjects) (4-5 mg/kg, n=19, Table 11B): 1 | Grade 3-4 TRAE Fatigue (% of subjects observed) (4-5 mg/kg, n=19, Table 11B): (5%) | Grade 3-4 TRAE Fatigue (no. of subjects) (4-5 mg/kg, n=19, Table 11B): 1 | Grade 3-4 TRAE HN, hyponatremia (no. of subjects) (4-5 mg/kg, n=19, Table 11B): 0 | Grade 3-4 TRAE Increased ALT (no. of subjects) (4-5 mg/kg, n=19, Table 11B): 0 | Grade 3-4 TRAE Increased AST (no. of subjects) (4-5 mg/kg, n=19, Table 11B): 0 | Grade 3-4 TRAE Keratitis (% of subjects observed) (4-5 mg/kg, n=19, Table 11B): (5%) | Grade 3-4 TRAE Keratitis (no. of subjects) (4-5 mg/kg, n=19, Table 11B): 1 | Grade 3-4 TRAE Nausea (no. of subjects) (4-5 mg/kg, n=19, Table 11B): 0 | Grade 3-4 TRAE PSN, Peripheral sensory neuropathy (% of subjects observed) (4-5 mg/kg, n=19, Table 11B): (5%) | Grade 3-4 TRAE PSN, Peripheral sensory neuropathy (no. of subjects) (4-5 mg/kg, n=19, Table 11B): 1 | Grade 3-4 TRAE Vomiting (no. of subjects) (4-5 mg/kg, n=19, Table 11B): 0 | Grade 3-4 TRAEs, Eye Disorders (no. of subjects) (6-7 mg/kg, n=18, Table 11A): 0 | Grade 3-4 TRAEs, Gastrointestinal Disorders (% of subjects observed) (6-7 mg/kg, n=18, Table 11A): (5.6%) | Grade 3-4 TRAEs, Gastrointestinal Disorders (no. of subjects) (6-7 mg/kg, n=18, Table 11A): 1 | Grade 3-4 TRAEs, Liver Function Tests (no. of subjects) (6-7 mg/kg, n=18, Table 11A): 0 | Grade 3-4 TRAEs, Metabolism & Nutrition Disorders (% of subjects observed) (6-7 mg/kg, n=18, Table 11A): (11.1%) | Grade 3-4 TRAEs, Metabolism & Nutrition Disorders (no. of subjects) (6-7 mg/kg, n=18, Table 11A): 2
